Among all 310,000 compounds or so, about 14,000 (4.5%) showed an effect of 50% or more. The effect is printed as a negative number. This is one part of the list.
Each compound was assayed against human ether-à-go-go-related gene (hERG) potassium channel (human, UniProt Q12809) (assay: primary screen, population patch clamp on CHO cells stably expressing hERG).
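Further: peak tail current of the secondary pulse compared with the same well before compound.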

Chain of human ether-à-go-go-related gene (hERG) potassium channel (Q12809 whole entry, looked up): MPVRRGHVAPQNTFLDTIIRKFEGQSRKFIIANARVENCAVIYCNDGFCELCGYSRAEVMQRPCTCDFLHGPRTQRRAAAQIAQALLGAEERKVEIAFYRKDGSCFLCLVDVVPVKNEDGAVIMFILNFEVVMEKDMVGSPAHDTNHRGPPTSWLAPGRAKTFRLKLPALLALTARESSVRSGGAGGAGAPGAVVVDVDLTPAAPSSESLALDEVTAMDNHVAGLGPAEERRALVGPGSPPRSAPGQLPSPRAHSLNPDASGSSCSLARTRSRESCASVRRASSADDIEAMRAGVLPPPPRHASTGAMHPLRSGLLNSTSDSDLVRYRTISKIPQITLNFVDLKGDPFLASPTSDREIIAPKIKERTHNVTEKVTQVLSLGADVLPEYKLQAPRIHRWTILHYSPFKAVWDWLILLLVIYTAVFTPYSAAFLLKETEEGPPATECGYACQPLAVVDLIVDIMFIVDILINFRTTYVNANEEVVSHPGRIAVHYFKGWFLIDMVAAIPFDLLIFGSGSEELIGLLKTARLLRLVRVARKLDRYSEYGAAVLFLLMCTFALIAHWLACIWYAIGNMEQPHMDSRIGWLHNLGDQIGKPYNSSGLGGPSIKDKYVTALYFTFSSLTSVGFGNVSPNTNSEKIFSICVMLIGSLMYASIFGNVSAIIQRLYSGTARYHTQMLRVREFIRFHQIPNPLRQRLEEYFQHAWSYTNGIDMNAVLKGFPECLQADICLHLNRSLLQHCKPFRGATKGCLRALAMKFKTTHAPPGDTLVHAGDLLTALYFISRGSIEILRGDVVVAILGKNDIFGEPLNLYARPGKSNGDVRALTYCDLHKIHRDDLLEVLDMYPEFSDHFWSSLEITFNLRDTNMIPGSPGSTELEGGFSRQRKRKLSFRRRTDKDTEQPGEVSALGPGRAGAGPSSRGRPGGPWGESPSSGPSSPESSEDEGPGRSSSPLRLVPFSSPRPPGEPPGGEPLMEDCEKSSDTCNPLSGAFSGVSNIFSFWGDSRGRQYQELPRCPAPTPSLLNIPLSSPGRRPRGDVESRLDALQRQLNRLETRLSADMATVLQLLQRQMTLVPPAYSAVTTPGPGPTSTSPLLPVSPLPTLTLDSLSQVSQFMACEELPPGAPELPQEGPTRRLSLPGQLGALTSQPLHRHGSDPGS

Compound | hERG current change (%, negative = inhibition) at 10uM [%]
Cc1ccccc1NC(=O)Cn1c(=O)n(-c2ccc(CC(=O)NCC3CCCO3)cc2)c(=O)c2ccccc21 (centres unmarked) | 0.402
COc1cc(S(=O)(=O)NC2CCCCC2C)ccc1F (centres unmarked) | -32.6
CC(C)Oc1ccccc1C1CC(=O)Nc2c1c(=O)n(C)c(=O)n2C (centres unmarked) | 14
Nc1nc(SCc2ccc(Br)cc2)n[nH]1 | 22.1
O=C(NCc1ccccc1)c1onc(CSc2ccccc2)c1C(=O)NCc1ccccc1 | 13.3
CC(=O)N1CC(C)Oc2ccc(S(=O)(=O)NC(CC(=O)O)c3ccccc3C)cc21 (centres unmarked) | 21.4
CC(=O)N1CCCc2cc(S(=O)(=O)Nc3cccc(C)c3C)ccc21 | 3.41
O=C(CC1NCCNC1=O)OCCCc1ccccc1 (centres unmarked) | -21.5
Cc1ccc(S(=O)(=O)N(C)CC(=O)N/N=C/c2ccc(C)o2)cc1 | -24.8
COc1ccc(C(=O)C2CCCN(C(=O)Cc3c(C)noc3C)C2)cc1OC (centres unmarked) | -3.81
Cc1ccc(-c2nn(-c3ccccc3)cc2C2CC(c3ccccc3)=NN2C(=O)CCC(=O)O)cc1 (centres unmarked) | -7.08
COC(=O)CSc1nnc(-c2ccccc2O)n1-c1ccc(C)cc1 | -4.35
Cc1ccccc1/C=C/C(=O)c1ccc([N+](=O)[O-])o1 | 0.656
COc1ccc(Cn2c(-c3ccco3)nc3c(c(=O)c4ccccc4n3C)c2=O)cc1 | -35.3
CC1(c2ccccc2)CC(c2ccccc2)=Nc2ccccc2N1 (centres unmarked) | 11.4
CN(C)CCCNS(=O)(=O)c1cc(Cl)c(Cl)cc1Cl | -27.8
CCC(C)NS(=O)(=O)c1ccc(NC(=O)c2cccs2)cc1 (centres unmarked) | 7.51
CCc1nc(N)c(C#N)c(-c2ccc(O)c(OC)c2)c1C | 4.46
Cn1c(=O)c2c(SCC(=O)N3CCN(c4ccccc4)CC3)nc(C3CC3)nc2n(C)c1=O | -19.4
C=CCN(C(=O)CSC1=NC(=O)CN1C(C)=O)c1nc(C)c(-c2ccccc2)s1 | -4.4
COc1ccc(NS(=O)(=O)c2ccc3nc(COc4ccc5ccccc5c4)[nH]c3c2)cc1 | 20.8
Cc1ccc(-c2cc(C(=O)N/N=C/C(Br)=C/c3ccccc3)n[nH]2)o1 | 12.7
CCOc1ccc(N2CC(C(=O)NCCc3c[nH]c4ccc(OC)cc34)CC2=O)cc1 (centres unmarked) | -35.8

From publication PMC4336329 (PLoS ONE, 2015)
